From article PMC6642173, “Acetylation regulates ribonucleotide reductase activity and cancer cell growth” (Nature Communications, 2019)
Positions count from the first letter of the chain named. In names and notes the source's numbering stands. Like-named read-outs stand apart in the source and are kept apart here. These are yes or no findings as the source states them, for the method shown. Binding seen in cells or lysates may run through a third protein. Some entries that bind do so weakly or less than the wild type. For some of these results: Where a sequence is shown, tags or fusion partners need not be part of it.

Protein sequences, listed by entry. Tags and fused reporters are not part of them. Residues count along the entry.
UniProt Q96EB6: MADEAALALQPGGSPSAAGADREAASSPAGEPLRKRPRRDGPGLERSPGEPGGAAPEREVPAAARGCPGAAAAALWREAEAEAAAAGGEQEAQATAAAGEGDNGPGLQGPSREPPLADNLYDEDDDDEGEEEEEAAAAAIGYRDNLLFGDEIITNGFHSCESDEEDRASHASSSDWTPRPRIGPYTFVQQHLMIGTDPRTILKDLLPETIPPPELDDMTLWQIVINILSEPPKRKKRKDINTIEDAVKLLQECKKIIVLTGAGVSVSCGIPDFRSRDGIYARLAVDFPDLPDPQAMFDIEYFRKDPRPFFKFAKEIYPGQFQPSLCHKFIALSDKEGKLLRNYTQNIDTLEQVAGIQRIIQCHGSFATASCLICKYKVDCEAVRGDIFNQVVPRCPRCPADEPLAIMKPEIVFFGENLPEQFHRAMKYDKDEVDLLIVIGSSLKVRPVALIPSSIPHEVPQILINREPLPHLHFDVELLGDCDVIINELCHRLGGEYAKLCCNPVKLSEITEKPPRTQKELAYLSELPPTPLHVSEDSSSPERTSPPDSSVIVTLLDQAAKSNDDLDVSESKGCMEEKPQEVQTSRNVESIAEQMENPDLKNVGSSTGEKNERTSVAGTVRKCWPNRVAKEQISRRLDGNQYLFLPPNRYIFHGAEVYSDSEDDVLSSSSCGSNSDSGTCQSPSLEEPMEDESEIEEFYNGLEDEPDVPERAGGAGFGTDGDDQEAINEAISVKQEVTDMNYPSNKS
UniProt Q9NXA8, residues 37-310: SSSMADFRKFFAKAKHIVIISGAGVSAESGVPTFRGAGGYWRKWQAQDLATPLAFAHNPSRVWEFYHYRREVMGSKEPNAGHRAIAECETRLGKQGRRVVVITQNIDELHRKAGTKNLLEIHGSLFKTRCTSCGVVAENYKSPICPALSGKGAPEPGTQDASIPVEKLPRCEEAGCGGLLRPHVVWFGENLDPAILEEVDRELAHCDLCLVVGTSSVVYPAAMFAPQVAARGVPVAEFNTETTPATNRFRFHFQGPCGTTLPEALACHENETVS
UniProt Q8N6T7: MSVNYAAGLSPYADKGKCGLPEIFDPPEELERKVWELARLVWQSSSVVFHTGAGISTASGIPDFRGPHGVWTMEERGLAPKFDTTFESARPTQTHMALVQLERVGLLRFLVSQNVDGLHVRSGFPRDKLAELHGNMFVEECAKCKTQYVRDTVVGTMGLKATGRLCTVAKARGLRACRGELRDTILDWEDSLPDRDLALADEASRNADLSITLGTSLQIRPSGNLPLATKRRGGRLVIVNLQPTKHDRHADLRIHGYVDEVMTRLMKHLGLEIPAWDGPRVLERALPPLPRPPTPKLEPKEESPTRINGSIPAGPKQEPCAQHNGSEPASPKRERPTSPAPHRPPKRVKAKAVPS
UniProt O95251: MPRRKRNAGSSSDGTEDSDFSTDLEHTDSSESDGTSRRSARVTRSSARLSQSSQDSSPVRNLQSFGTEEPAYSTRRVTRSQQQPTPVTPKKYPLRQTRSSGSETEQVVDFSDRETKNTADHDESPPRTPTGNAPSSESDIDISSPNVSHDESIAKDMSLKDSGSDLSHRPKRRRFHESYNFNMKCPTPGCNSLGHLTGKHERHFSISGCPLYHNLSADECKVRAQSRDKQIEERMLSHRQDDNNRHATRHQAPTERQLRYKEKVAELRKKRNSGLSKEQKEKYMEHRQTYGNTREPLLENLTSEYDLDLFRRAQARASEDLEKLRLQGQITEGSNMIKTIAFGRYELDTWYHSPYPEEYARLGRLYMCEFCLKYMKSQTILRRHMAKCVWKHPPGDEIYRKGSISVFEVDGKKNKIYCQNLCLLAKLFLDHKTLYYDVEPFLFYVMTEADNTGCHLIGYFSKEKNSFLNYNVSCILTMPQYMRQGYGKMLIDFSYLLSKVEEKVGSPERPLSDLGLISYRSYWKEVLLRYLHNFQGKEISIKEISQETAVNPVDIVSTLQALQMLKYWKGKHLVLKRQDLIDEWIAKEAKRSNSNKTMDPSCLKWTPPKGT
UniProt Q13535: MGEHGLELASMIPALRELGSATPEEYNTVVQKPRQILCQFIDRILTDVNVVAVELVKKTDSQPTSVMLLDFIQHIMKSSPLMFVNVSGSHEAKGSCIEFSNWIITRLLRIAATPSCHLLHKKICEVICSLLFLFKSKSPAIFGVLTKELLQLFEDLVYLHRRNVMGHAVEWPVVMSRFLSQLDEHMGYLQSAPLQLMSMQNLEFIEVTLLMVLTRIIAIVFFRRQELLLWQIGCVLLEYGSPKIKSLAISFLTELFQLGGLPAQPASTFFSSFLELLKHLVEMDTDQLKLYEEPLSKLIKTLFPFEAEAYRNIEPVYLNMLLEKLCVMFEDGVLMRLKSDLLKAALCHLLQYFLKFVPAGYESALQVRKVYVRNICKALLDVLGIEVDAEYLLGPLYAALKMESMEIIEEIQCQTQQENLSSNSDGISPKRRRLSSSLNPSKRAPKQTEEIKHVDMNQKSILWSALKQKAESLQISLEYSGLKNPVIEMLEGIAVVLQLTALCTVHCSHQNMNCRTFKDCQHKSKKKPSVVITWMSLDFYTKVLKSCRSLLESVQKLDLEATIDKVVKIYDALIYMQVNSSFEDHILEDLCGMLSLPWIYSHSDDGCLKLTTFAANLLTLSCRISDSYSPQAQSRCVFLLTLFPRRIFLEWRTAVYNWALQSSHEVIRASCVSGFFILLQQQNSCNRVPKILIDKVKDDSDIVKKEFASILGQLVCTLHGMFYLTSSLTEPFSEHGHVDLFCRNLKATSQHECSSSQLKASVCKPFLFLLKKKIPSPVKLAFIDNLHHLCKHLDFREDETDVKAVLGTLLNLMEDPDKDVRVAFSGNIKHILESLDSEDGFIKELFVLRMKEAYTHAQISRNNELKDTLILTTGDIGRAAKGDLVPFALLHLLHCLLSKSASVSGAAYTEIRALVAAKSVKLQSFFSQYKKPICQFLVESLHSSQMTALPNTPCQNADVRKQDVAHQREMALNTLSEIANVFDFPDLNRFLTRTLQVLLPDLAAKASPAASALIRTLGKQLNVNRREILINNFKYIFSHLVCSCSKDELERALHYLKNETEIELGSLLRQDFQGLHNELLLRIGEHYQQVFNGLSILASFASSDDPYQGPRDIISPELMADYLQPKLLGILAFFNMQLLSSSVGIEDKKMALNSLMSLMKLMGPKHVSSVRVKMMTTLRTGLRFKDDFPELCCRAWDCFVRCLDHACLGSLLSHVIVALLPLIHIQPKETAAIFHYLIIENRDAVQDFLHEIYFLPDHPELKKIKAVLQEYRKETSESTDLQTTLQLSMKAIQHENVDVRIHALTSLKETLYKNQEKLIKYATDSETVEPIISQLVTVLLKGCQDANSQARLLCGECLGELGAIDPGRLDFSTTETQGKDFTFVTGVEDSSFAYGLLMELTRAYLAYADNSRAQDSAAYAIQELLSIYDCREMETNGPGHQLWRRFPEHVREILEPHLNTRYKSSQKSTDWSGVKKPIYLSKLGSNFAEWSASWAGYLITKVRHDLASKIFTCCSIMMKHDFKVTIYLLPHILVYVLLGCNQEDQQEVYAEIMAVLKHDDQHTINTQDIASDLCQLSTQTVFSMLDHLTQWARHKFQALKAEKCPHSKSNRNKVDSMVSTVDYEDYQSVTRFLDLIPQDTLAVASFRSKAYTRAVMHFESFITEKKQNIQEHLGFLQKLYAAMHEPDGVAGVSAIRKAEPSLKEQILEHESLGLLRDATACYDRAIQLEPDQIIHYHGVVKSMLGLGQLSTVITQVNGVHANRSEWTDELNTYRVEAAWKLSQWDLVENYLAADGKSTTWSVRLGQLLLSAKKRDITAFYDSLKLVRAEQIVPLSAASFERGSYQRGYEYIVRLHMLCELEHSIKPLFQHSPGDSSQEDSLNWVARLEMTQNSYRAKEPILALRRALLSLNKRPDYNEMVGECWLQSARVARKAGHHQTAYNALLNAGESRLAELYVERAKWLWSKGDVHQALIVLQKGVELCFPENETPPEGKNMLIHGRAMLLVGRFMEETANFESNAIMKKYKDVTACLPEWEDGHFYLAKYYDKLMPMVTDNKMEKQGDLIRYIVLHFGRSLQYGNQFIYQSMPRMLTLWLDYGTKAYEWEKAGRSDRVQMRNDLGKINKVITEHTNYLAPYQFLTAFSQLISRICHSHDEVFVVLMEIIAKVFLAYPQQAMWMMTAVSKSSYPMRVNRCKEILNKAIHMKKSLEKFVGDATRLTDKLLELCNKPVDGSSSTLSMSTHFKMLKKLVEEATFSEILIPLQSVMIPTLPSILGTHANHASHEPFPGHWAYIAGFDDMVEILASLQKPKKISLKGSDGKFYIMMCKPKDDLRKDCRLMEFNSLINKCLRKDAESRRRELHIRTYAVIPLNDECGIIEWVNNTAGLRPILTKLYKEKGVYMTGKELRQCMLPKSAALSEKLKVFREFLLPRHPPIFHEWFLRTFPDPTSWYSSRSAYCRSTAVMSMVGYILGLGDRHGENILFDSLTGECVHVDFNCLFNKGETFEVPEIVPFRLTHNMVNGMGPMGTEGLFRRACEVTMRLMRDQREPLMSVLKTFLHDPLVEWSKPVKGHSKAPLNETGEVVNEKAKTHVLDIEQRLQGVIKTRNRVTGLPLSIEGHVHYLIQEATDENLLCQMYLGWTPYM

Columns and labels:
[1] = target: T1, Flag-tagged WT RRM2 (human) (UniProt P31350); assay: co-IP; H1299 cells co-transfected with Flag-RRM2 and HA-KAT7; precipitating antibody not told
T1 sequence: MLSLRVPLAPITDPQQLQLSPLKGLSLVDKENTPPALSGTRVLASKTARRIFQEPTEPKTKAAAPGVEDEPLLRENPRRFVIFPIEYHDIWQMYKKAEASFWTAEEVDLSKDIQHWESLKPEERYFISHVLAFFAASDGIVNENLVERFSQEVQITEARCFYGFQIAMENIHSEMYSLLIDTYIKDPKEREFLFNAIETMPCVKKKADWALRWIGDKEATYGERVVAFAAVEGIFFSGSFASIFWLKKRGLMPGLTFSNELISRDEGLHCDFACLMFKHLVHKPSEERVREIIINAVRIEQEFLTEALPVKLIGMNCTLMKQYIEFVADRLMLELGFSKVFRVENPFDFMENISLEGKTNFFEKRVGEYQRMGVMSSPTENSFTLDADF

[2] = target: T2, Endogenous RRM2 (human (endogenous in H1299)) (UniProt P31350); assay: co-IP; endogenous proteins in H1299 cells; IP with RRM2 antibody, western blot of the associated protein
T2 sequence: T1 sequence

Flag-tagged Sirt1 = Flag-tagged Sirt1 (UniProt Q96EB6); assay: co-IP; H1299 cells co-transfected with HA-RRM2 and a Flag-tagged partner (Flag-RRM2 variants or Flag-Sirt1-7); IP with Flag antibody, western blot with anti-HA and anti-Flag
[3] = target: T1, Flag-tagged WT RRM2 (human); assay: as above
[4] = target: T3, Flag-tagged RRM2 K30Q acetyl-mimetic mutant (human) (UniProt P31350); assay: as above
T3 sequence: T1 sequence with K30Q

Flag-tagged Sirt5 = Flag-tagged Sirt5 (UniProt Q9NXA8); assay: as above
[5] = target: T4, Flag-tagged RRM2 K283Q acetyl-mimetic mutant (human) (UniProt P31350); assay: as above
T4 sequence: T1 sequence with K283Q

Flag-tagged Sirt6 = Flag-tagged Sirt6 (UniProt Q8N6T7); assay: as above
Flag-tagged Sirt2 WT [6] = target: T5, Flag-tagged Sirt2 WT (UniProt Q8IXJ6); assay: as above
T5 sequence: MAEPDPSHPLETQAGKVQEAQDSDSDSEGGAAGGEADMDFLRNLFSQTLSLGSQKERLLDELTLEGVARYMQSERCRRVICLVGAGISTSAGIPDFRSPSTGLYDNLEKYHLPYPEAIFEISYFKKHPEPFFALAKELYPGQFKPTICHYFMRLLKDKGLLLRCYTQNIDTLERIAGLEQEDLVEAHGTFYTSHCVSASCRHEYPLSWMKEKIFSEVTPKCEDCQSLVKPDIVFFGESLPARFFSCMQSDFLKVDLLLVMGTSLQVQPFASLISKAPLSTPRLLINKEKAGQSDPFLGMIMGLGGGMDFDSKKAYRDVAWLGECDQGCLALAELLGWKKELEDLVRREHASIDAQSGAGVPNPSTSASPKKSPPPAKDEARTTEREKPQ

[7] = target: T6, Flag-tagged RRM2 K61Q acetyl-mimetic mutant (human) (UniProt P31350); assay: as above
T6 sequence: T1 sequence with K61Q

Flag-tagged Sirt4 = target: T7, Flag-tagged Sirt4 (UniProt Q9Y6E7); assay: as above
T7 sequence: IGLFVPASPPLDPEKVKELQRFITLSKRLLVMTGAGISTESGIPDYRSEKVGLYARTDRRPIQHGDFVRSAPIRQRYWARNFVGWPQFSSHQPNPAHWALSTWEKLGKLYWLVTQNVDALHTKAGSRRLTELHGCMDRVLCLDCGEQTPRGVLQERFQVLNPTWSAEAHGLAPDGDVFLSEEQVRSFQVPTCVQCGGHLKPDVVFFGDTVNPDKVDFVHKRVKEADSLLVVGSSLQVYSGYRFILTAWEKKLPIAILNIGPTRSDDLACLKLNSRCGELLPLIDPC

[8] = target: T2, Endogenous RRM2 (human (endogenous in H1299)); assay: co-IP; endogenous proteins in H1299 cells; IP with RRM2 antibody, western blot of the associated protein; remark: listed apart in the source
Flag-tagged Sirt2 WT [9] = target: T5, Flag-tagged Sirt2 WT; assay: co-IP; H1299 cells expressing exogenous Flag-Sirt2, treated with IR or CPT; IP with Flag antibody, western blot with RRM2 antibody
Flag-tagged Sirt2 WT [10] = target: T5, Flag-tagged Sirt2 WT; assay: co-IP; H1299 cells co-transfected with Flag-Sirt2 and HA-tagged WT, S150A or S150E RRM2; analysis of HA-RRM2/Flag-Sirt2 binding, precipitating antibody not told
[11] = target: T8, Flag-tagged Sirt7, Q9NRC8; assay: co-IP; H1299 cells co-transfected with HA-RRM2 and a Flag-tagged partner (Flag-RRM2 variants or Flag-Sirt1-7); IP with Flag antibody, western blot with anti-HA and anti-Flag; conditions: remark: other sources report otherwise
T8 chain: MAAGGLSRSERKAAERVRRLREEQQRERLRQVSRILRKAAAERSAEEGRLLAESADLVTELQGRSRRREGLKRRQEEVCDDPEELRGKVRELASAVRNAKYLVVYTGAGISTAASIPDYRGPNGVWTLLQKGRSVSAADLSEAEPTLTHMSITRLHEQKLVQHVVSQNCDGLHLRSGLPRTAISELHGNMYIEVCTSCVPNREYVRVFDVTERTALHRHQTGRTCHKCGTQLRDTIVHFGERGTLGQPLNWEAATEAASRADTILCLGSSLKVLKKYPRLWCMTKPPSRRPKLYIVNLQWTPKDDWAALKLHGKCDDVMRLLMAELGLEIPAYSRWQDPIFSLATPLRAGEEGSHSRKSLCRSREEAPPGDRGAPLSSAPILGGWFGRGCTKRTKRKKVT

For “HA-KAT7 (from UniProt O95251 1-611) (enzyme)”, the binding [1] was “binds”.

“Endogenous ATR (from UniProt Q13535 1-2644) (enzyme)” was tested, and the binding [2] was “binds”.

With “Endogenous KAT7 (from UniProt O95251 1-611) (enzyme)” the binding [2] was “binds”.

B1: HA-tagged WT RRM2 (protein, UniProt P31350 1-389)
chain: T1 sequence
For B1, the binding (Flag-tagged Sirt1) was “no binding”, the binding [3] was “binds” and the binding [4] was “binds”. The binding (Flag-tagged Sirt5) was “no binding”, the binding [5] was “binds” and the binding (Flag-tagged Sirt6) was “no binding”. The binding (Flag-tagged Sirt2 WT [6]) was “binds”, the binding [7] was “binds” and the binding (Flag-tagged Sirt4) was “no binding”.

B2: Endogenous Sirt2 (enzyme, UniProt Q8IXJ6 1-389)
chain: T5 sequence
With B2 the binding [8] was “binds”.

B3: Endogenous RRM2 (protein, UniProt P31350 1-389)
chain: T1 sequence
With B3 the binding (Flag-tagged Sirt2 WT [9]) was “binds”.

B4: HA-tagged RRM2 S150E phosphomimetic mutant (protein, UniProt P31350 1-389)
chain: T1 sequence with S150E
B4 was tested, and the binding (Flag-tagged Sirt2 WT [10]) was “binds”.

B5: HA-tagged WT RRM2, P31350 1-389 (protein)
chain: T1 sequence
With B5 the binding [11] was “no binding”.
